Experimental data taken from PMC6919601, “Identification of Plasmodium dipeptidyl aminopeptidase allosteric inhibitors by high throughput screening” (PLoS ONE, 2019).
The campaign covered roughly 110,000 compounds. About 230 (0.21%) showed an effect of 50% or more. This is one part of the list.

target: DPAP1 (Plasmodium falciparum, UniProt Q8IIJ9); assay: primary screen, percent inhibition; read by cleavage of a fluorogenic dipeptide substrate; higher = more effect of the substance; set-up: species or system P. falciparum D10 trophozoite lysates; single well
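Also: 30 min substrate incubation versus DMSO and 10 µM JCP410 controls.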

Chain of DPAP1 (Q8IIJ9 whole entry, looked up): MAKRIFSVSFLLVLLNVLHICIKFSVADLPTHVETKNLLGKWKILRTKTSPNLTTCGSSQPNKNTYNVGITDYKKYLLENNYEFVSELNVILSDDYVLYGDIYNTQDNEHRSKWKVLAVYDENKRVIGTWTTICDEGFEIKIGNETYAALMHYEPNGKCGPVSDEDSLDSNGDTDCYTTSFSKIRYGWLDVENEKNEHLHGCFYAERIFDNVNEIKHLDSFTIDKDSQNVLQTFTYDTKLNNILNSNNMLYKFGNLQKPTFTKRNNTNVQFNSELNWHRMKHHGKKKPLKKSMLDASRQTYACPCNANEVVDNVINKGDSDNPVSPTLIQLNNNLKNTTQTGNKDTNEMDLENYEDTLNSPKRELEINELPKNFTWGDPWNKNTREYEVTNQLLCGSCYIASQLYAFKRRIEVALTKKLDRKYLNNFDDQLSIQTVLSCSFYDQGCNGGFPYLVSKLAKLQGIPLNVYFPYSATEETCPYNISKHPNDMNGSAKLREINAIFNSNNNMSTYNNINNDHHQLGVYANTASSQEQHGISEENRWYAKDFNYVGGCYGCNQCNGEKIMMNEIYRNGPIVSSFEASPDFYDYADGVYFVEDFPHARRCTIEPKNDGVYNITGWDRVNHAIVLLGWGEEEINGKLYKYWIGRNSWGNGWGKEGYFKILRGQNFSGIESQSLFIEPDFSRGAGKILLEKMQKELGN

SMILES | % Inhibition @ 10 uM [%]
CCCn1c2ccccc2c2cnn(CC(=O)NCc3ccco3)c(=O)c21 | -0.968
O=C(Nc1ccccc1C(=O)Nc1ccccc1)Nc1cccc2ccccc12 | -6.02
Cc1cc2nc(O)c(O)nc2cc1S(=O)(=O)NCC(C)c1ccccc1 (centres unmarked) | 6.01
COc1cccc2cc(NC(=O)C3CCCCC3)c(=O)oc12 | -0.769
Clc1ccccc1CN1CCN(Cc2ccncc2)CC1 | 0.673
O=C(O)c1cccc(NC(=O)c2ccccc2C(=O)O)c1 | 0.266
CCc1ccc(S(=O)(=O)/N=C2/C=C(Br)C(=O)c3ccccc32)cc1 | 0.222
COc1cc(CNCCSc2nnnn2C)ccc1OCc1cccs1 | -7.24
CC1=C(C(=O)Nc2nc3ccccc3s2)C(c2ccccc2)C2=C(O)CC(C)(C)CC2=N1 (centres unmarked) | -0.725
O=C(NCCSc1nnnn1-c1ccccc1)C(c1ccccc1)c1ccccc1 | -6.74
O=C(O)c1ccc(S(=O)(=O)N2CCOCCOCCOCC2)cc1 | -1.17
Cc1ccc(C)c(NC(=O)/C=C/c2ccccc2Cl)c1 | 4.34
Cc1ccc(CS(=O)(=O)c2ncc(Cl)c(C(=O)NCc3ccccc3)n2)cc1 | 5.54
CC1CC(C)CN(C2CCN(Cc3ccccc3)CC2)C1 (centres unmarked) | 1.88
Cc1ccc(-c2cc3nc(C)cc(-c4ccccc4)n3n2)cc1 | -0.169
CCN(CC)CCCNc1oc(/C=C/c2ccc(F)cc2)nc1C#N | 5.68
CC(=O)Nc1ccc(S(=O)(=O)N2CCN(C(=O)N(C)C)CC2)cc1 | 0.755
COc1cc(OC)c(C2C3=C(O)CC(C)(C)CC3=Nc3nc4ccccc4n32)cc1OC (centres unmarked) | 1.73
COc1ccccc1C(CCNS(=O)(=O)c1ccc(C)cc1)c1ccco1 (centres unmarked) | -4.77
CCC(Sc1nc2ccccc2c2nc(C)nn12)C(=O)NCc1ccc(C)cc1 (centres unmarked) | 3.38
CCC1(CC)C(=O)N(C)C(=O)N(C)C1=S | 6.48

SMILES | % Inhibition @ 10 uM [%]
Cc1cc(C)n(-c2nc3ccccc3nc2N2CCN(S(=O)(=O)c3cccs3)CC2)n1 | -1.68
Cc1ccc2nc(Oc3ccccc3)ccc2c1 | 1.7
O=C(Nc1ccc2c(c1)OCO2)c1ccc2c(c1)OCO2 | -1.63
COc1ccccc1N1CCN(C2CC(=O)N(c3ccc(F)cc3)C2=O)CC1 (centres unmarked) | 1.08
N=C1/C(=C\c2cccn2-c2nnc(-c3ccccc3)s2)C(=O)N=C2SC=NN12 | 0.208
COCCNC(=O)c1ccc(-c2nc(CS(=O)(=O)c3ccc(C)cc3)c(C)o2)cc1 | 0.625
C=CCn1c(SC/C=C(/C)Cl)nc2c1c(=O)[nH]c(=O)n2C | 1.8
CCC(C)c1ccc(NC(=O)c2cnn3c(C(F)F)cc(C)nc23)cc1 (centres unmarked) | 0.161
CC1C(=O)CC(c2ccco2)NC1c1ccco1 (centres unmarked) | 3.82
COC(=O)c1cc2sc(Cl)cc2n1CC(=O)NCCC(C)C | -10.2
CCOc1ccccc1NC(=O)C1=C(C)NC(=O)NC1c1cccc(OC)c1 (centres unmarked) | -2.6
O=C(Nc1noc2ccccc12)C(=O)c1ccccc1 | 0.569
CCCN(CCC)CCCNS(=O)(=O)c1ccc(OCC)c2ncccc12 | 0.231
O=C(NCCN1CCOCC1)c1ccc(-n2cnc3cccnc32)cc1 | -0.241
O=c1cccc2n1C[C@H]1C[C@@H]2CN(Cc2c(O)ccc3ccccc23)C1 | 3.15
COc1ccc(OC)c(CCNCc2c(C(=O)O)n(Cc3ccc(C)cc3)c3cc(OC)ccc23)c1 | 6.66
COc1cccc(C(=O)Nc2ccc(CC#N)cc2)c1 | 6.35
Nc1cccc2c1c1c(n2S(=O)(=O)c2ccccc2)CCC1 | -2.99
O=C(Nc1cc(Cl)cc(Cl)c1)c1ccccc1Br | 2.46
CCCS(=O)(=O)c1c(S(=O)(=O)CCC)c2c(N)cccn2c1C(=O)c1ccc(C)cc1C | 4.54
COc1ccc(-c2cn3nc(N4CCCC(C(=O)NCc5ccc6c(c5)OCO6)C4)sc3n2)cc1 (centres unmarked) | 5.14

SMILES | % Inhibition @ 10 uM [%]
Cc1ccc(C)c(S(=O)(=O)NCc2ccc(C(=O)N3CCCCCC3)cc2)c1 | -7.61
O=C(c1ccco1)N(Cc1cccc([N+](=O)[O-])c1)c1ccccc1 | -2.03
O=C(COc1ccc(Cl)cc1Cl)N1CCCC1 | -1.77
O=C(Nc1nc2c(Cl)c(Cl)ccc2s1)c1cccnc1 | 2.01
COc1cccc(C2=NS(=O)(=O)N(C)C(C(=O)NCCc3ccccc3)=C2)c1 | 0.655
CCOc1ccc(NC2=NC(=O)C(CC(=O)Nc3ccc(C)c(C)c3)S2)cc1 (centres unmarked) | -0.941
CN1CCC(N(C)Cc2cccc3ccccc23)CC1 | 3
Cc1cc2nc(O)c(O)nc2cc1S(=O)(=O)N1CCc2ccccc2C1 | 2.42
CCOC(=O)c1sc(NC(=O)C(CC)Sc2nc3ccccc3s2)nc1C (centres unmarked) | -6.95
Cc1c(C(=O)NCc2ccc(F)cc2)oc2ccc3c(c12)C(=O)CC1(CCCC1)O3 | -1.08
O=c1c2nccnc2nc(SCc2cc(=O)n3cc(Cl)ccc3n2)n1Cc1ccccc1 | 1.1
O=C(NCCc1ccccc1)C1CC(c2c(F)cccc2Cl)=NO1 (centres unmarked) | 1.7
COc1cccc2c1cc1c(=O)n(CC(=O)NCCC(C)C)nc(C)n12 | -3.47
CC(C)N(C)C1CCN(S(=O)(=O)c2ccc(-c3cc(C(F)(F)F)no3)s2)CC1 | -1.05
Cc1nn(-c2ccccc2F)c2c1C(=O)CC(c1ccccc1)C2 (centres unmarked) | 2.7
CC1=C(C(=O)Nc2ccccc2C)C(c2cccc(F)c2)n2ncnc2N1 (centres unmarked) | -1.22
CCOc1cc(C2C(C#N)=C(N)Oc3[nH]nc(C)c32)ccc1OCc1ccccc1 (centres unmarked) | -1.08
CC(C(=O)N1CCN(Cc2ccc3c(c2)OCO3)CC1)n1sc2ccccc2c1=O (centres unmarked) | -7.17
Cc1cc(=O)n(CC(=O)NCc2ccccc2)c2c1c(C)nn2-c1cccc(F)c1 | 3.14
CC(C)OC(=O)C(N)c1ccccc1 (centres unmarked) | -0.582
